In article PMC4336329 (PLoS ONE, 2015):
In all, about 310,000 compounds went through this assay and about 14,000 (4.5%) showed an effect of 50% or more. The effect is printed as a negative number. The list shows a part of the results.

The compounds below were run against human ether-à-go-go-related gene (hERG) potassium channel (human, UniProt Q12809) (assay: primary screen, population patch clamp on CHO cells stably expressing hERG).
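Note: peak tail current of the secondary pulse compared with the same well before compound.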

human ether-à-go-go-related gene (hERG) potassium channel, sequence (Q12809 whole entry, looked up): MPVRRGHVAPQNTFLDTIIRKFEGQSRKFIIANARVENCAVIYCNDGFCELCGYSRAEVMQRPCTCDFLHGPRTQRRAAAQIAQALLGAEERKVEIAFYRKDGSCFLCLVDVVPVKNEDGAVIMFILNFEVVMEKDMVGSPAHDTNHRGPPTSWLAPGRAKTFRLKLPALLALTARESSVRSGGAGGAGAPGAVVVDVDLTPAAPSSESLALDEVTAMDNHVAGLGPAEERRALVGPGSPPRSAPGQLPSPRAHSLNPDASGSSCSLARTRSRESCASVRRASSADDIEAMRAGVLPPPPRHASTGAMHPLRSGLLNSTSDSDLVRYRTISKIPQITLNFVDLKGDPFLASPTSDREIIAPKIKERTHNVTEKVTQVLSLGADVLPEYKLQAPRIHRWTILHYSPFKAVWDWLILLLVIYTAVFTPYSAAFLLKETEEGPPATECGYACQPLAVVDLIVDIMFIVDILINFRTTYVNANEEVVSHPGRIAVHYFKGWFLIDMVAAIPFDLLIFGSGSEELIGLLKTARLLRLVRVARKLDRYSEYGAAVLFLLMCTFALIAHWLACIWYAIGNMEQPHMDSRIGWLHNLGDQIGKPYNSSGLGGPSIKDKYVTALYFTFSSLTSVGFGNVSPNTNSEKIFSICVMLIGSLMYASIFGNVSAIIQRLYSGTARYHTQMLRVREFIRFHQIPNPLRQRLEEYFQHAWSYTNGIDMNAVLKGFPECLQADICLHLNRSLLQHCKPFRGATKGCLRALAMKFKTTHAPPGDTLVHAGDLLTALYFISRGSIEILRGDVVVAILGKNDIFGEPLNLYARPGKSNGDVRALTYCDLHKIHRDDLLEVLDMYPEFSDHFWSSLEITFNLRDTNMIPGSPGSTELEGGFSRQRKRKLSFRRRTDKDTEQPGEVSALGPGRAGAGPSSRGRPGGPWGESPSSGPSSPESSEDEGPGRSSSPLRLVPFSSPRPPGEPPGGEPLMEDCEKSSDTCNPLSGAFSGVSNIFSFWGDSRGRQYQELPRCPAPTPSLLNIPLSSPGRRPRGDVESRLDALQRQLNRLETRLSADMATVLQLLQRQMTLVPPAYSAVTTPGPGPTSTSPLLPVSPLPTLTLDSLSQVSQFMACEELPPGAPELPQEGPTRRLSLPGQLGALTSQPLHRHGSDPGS

Row | SMILES | hERG current change (%, negative = inhibition) at 10uM
1 | C(=N\n1cnnc1SCc1ccccc1)/c1ccco1 | -1.71%
2 | CCCc1nc(C)c(-c2ccc(OC)c(OC)c2)c(=O)[nH]1 | 3.64%
3 | Cc1[nH]c2ccccc2c1C(=O)CN1CCC2(CC1)OCCO2 | -13.3%
4 | COc1ccc(-n2c(O)c(C(C)=NCc3ccc4c(c3)OCO4)c(=O)[nH]c2=O)cc1 | 6.04%
5 | Cc1nc(CNS(=O)(=O)c2ccc(F)cc2)cs1 | 6.96%
6 | Cc1ccc(-n2nc3c(N4CCC(C(=O)N5CCN(C)CC5)CC4)nnc(C)c3c2C)cc1 | 11.9%
7 | CCN(CC)S(=O)(=O)c1ccc(NC(=O)c2cc(=O)[nH]c3ccccc23)cc1 | 10.5%
8 | Cc1ccc([N+](=O)[O-])cc1N=C(c1ccc([N+](=O)[O-])cc1)N1CCOCC1 | -20.8%
9 | O=C(NCCSCc1ccc(Cl)cc1)c1cccs1 | -63.7%
10 | CC(C)(C)NC(=O)CSc1nc(O)cc(=O)n1-c1ccccc1F | 6.39%
11 | Cc1csc(SCc2nnc(-c3ccccc3Br)o2)n1 | -7.45%
12 | Cc1ccc(C)c(NC(=O)CSc2nc3ccccc3nc2N2CCOCC2)c1 | 20.7%
13 | CCN1CCN(CCCNC(=O)C2CCCN(c3nnc(-n4cccc4)s3)C2)CC1 (stereo not shown) | 1.47%
14 | O=C(NC(=S)N1CCc2ccccc21)c1ccco1 | 8.41%
15 | Cc1ccc(OCC(=O)Nc2nc(C)c(Cl)cc2Cl)c([N+](=O)[O-])n1 | -1.21%
16 | CCOC(=O)c1c(NC(=O)C(=O)N/N=C/c2ccccc2OC)sc2c1CCCCC2 | -5.51%
17 | Cn1c(Cc2cccc3ccccc23)nnc1SCC(=O)N1CCN(c2cccc(Cl)c2)CC1 | -25.7%
18 | Cc1[nH]c2ccccc2c1C(=O)CN1C(=O)NC2(CCCCCC2)C1=O | 12.5%
19 | COc1ccc(CN2CCCC(C(=O)c3ccc(Cl)cc3)C2)c(OC)c1 (stereo not shown) | -75.2%
20 | CCc1c(C)nc(SCC(=O)Nc2c(C)n(C)n(-c3ccccc3)c2=O)[nH]c1=O | -5.46%
21 | NC(=O)c1nsc(C(=O)N(c2ccccc2)C(C(=O)NC2CCCC2)c2ccncc2)c1N (stereo not shown) | 22.1%
22 | CC(=O)N(/N=C1\Sc2ccccc2C1=O)c1ccc(C)cc1C | 18%
23 | Cc1cc(C(=O)COC(=O)c2cc(Cl)ccc2N)c(C)n1Cc1ccco1 | 19.9%
24 | O=C(COC(=O)c1nn(-c2ccccc2C(F)(F)F)cc1O)c1ccc(OC(F)F)cc1 | 9.41%
25 | O=C(NCc1cccnc1)C(=O)Nc1nc(-c2ccccc2)cs1 | -3.98%
26 | Cl.Nc1c2c(nc3ccccc13)CCCC2 | -39.7%
27 | O=C(NCCC(=O)N1CCCC(C(F)(F)F)C1)c1ccccc1Cl (stereo not shown) | 6.81%
28 | O=C(CCSCc1ccccc1F)NCc1ccc(F)cc1 | -4.24%

Row | SMILES | hERG current change (%, negative = inhibition) at 10uM
29 | CC1CCN(C(=S)c2ccc(N(C)C)cc2)CC1 | -5.69%
30 | COc1ccccc1/C=C/C(=O)Nc1ccc2c(c1)CCC2 | 6.71%
31 | Cc1cc(Cl)cc(Cl)c1OCCCCN(C)C.O=C(O)C(=O)O | -43.7%
32 | COc1ccc(N(CC(=O)NCCSc2ccc(C)cc2)S(=O)(=O)c2ccccc2)c(OC)c1 | -17.4%
33 | C/C(=N/NC(=O)c1ccn(C)n1)c1ccncc1 | 13.2%
34 | CCN1CCN(c2ccc(S(=O)(=O)N3CCCCC3)cc2NC(=O)COc2cc(C)ccc2Cl)CC1 | -14.1%
35 | O=C(O)CCCCCn1c(SCC(=O)c2ccc(O)c(O)c2)nc2ccsc2c1=O | 32.2%
36 | COC(=O)C1=C(c2ccc(OC)c(OC)c2)C[C@@H]2CC[C@H]1N2C(=O)NCCOc1ccccc1 | 9.93%
37 | CS(=O)(=O)c1nc(S(=O)(=O)c2ccc(Cl)cc2)c(NCCN2CCOCC2)s1 | -31.6%
38 | Cc1ccc(NC(=O)c2cccc(S(=O)(=O)N(C)C3CCCCC3)c2)nc1 | -34.7%
39 | CCN(CC)S(=O)(=O)c1ccc(OCC(=O)NC(=O)Cc2ccccc2)c([N+](=O)[O-])c1 | -15.9%
40 | CN(Cc1nccs1)C(=O)c1ccc(OC2CCN(CCc3ccccc3)CC2)cc1 | -58.9%
41 | CCOc1ccc(NS(=O)(=O)c2ccc(NC(=S)NC(=O)CC(C)C)cc2)cc1 | 8.92%
42 | O=C(O)Cc1ccc(C(=O)c2ccc(Cl)cc2)s1 | 18.6%
43 | Cc1nn2c3cc(N4CCOCC4)ccc3nc2c2ccccc12 | 22.2%
44 | C[C@@]12C(=O)Nc3cc(Cl)ccc3C(=O)N1[C@H]1c3ccccc3OC[C@@H]1[C@@H]2c1ccccc1 | 26.1%
45 | CCN(C(C)=O)c1nc(CSc2nnc(NC(C)C)s2)cs1 | -25.4%
46 | CC(=O)C1C(c2cccc(F)c2)c2c(n[nH]c2C)CC1(C)O (stereo not shown) | 15.7%
47 | COc1cccc2cc(-c3ccnc(N)n3)oc12 | 14.7%
48 | CC(NC(=O)CN1CCN(c2cccc(Cl)c2)CC1)c1ccccc1 (stereo not shown) | 4.34%
49 | CCC1CCC(N2CCN(c3ccc(F)cc3)CC2)CC1 (stereo not shown) | -52.1%
50 | CCOC(=O)c1csc(NC(=O)c2ccc(S(=O)(=O)N3CCCC3)cc2)n1 | 11.3%
51 | CCOc1ccc(Br)cc1S(=O)(=O)Nc1ccc(C(=O)OCC(=O)Nc2ccc(C#N)cc2)cc1 | -3.68%
52 | CN(C)CC(O)COc1ccc(-c2ccc(C#N)cc2)cc1 (stereo not shown) | -57.5%
53 | O=C(O)CC1SC(=Nc2ccc(O)cc2)NC1=O (stereo not shown) | 31.6%
54 | COc1ccc(OCCCC(=O)Nc2cccc([N+](=O)[O-])c2C)cc1 | 6.78%
55 | Cc1ccccc1NC(=O)CSc1nnc(C)c(=O)[nH]1 | 8.62%
